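Five compound concentrations were applied to cells in 96-well plates for 48 hours; endpoints were derived by simple linear interpolation of the resulting dose-response curve. At the GI50, growth is halved.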 Activity calls are given as the source filed them. Cut-off read from the data, not from the text of the source: active = GI50 up to about 1.1 µM and inactive = higher.

The subject of the experiment is NCI-H322M. The experiment can be described thus: NCI tumour cell line growth inhibition, 48 h.
As to `Cc1cccc(NC(=S)N/N=C2\C(=O)Nc3ccccc32)c1`, the GI50 was inactive: > 100 µM.

On to `N#CC(=N)c1ncn(-c2ccccc2N)c1N`, for which the GI50 is inactive: > 100 µM.

Take `C=C(C)[C@@H]1CC[C@@H]2C(=CC[C@]3(C)C([C@H](C)CC/C=C(/C)C(=O)O)CC[C@@]23C)[C@@]1(C)CCC(=O)O` (stereo not given in full): the GI50 is inactive: 26.4 µM.

`O=C(O)/C=N\N=c1[nH]c2ccccc2[nH]1`: the GI50 is inactive: > 100 µM.

As for `Nc1ccccc1C(=O)N/N=C1\C(=O)Nc2ccccc21`, the GI50 is inactive: > 100 µM.

Consider `CC1=C(C(=O)Nc2ccccc2C)C(c2ccccc2O)C(C(=O)Nc2ccccc2C)=C(C)N1`, for which the GI50 was inactive: 25.1 µM.

For `O=C(NC(=O)c1ccccc1[N+](=O)[O-])Nc1ccc(Oc2ncc(Cl)cn2)c([N+](=O)[O-])c1`, the GI50 was active: 0.385 µM.

Turning to `CCOC(=O)c1ccc(/N=C2\Sc3nc4ccccc4n3\C2=N\c2ccc(C(=O)OCC)cc2)cc1`, the GI50 was inactive: 26.7 µM.

Turning to `Cc1cnc2c(c1)C(=O)N(c1ccc(Oc3ccccc3)cc1)S2(=O)=O`, the GI50 was inactive: > 100 µM.

Regarding `O=C1C=CC=C/C1=C1\N=C(c2ccccc2OCC(=O)c2ccccc2)SS1`, the GI50 was inactive: > 100 µM.

For the compound `COC(=O)C(=O)C(C(=O)C(=O)Nc1ccc([N+](=O)[O-])cc1[N+](=O)[O-])c1nc2ccc([N+](=O)[O-])cc2nc1O` (stereo not given), the GI50 was inactive: 29.5 µM.

As to `C[C@@H](NC(=O)[C@@H]1C[C@]1(C)COC(=O)c1cc([N+](=O)[O-])cc([N+](=O)[O-])c1)c1cccc2ccccc12`, the GI50 was inactive: > 100 µM.

`O=C(Nc1nnc(S)[nH]1)C(=O)C(c1cnc2ccc([N+](=O)[O-])cc2n1)[N+](=O)[O-]` (stereo not given): the GI50 is inactive: > 100 µM.

For `Cc1c(N2C(=O)/C(=C/c3ccc(N(CCC#N)CCC#N)cc3)N=C2c2ccccc2)c(=O)n(-c2ccccc2)n1C`, the GI50 was inactive: > 100 µM.

With `O=C1C(=CNC(=S)c2ccccc2)C(=O)c2ccccc21`, the GI50 is inactive: 76.7 µM.

`CC1CC/C(=C\c2ccc(N(C)C)cc2)C2=C1C(c1ccc(N(C)C)cc1)NC(=S)N2` (stereo not given): the GI50 was inactive: > 100 µM.

On to `COc1ccc(/C(C#N)=C2/O/C(=N/N)C(c3ccc(OC)c(OC)c3)C2=O)cc1OC` (stereo not given), for which the GI50 is inactive: > 100 µM.

In the case of `CC(=N/NC(=S)N1CCCCCC1)/C(C)=N\NC(=S)N1CCCCCC1`, the GI50 was inactive: 4.42 µM.

For the compound `CCOC(=O)N1CCN(Cc2cc(=O)n3cc(C)ccc3n2)CC1`, the GI50 is inactive: > 100 µM.

In the case of `COCCOCC(=O)N(CCn1ccc(NC(c2ccccc2)(c2ccccc2)c2ccccc2)nc1=O)CCn1cnc2nc(N)[nH]c(=O)c21`, the GI50 was inactive: > 100 µM.

Take `CCCN(CCC)c1cc2c(cc1F)c(=O)c(C(=O)O)cn2-c1ccc(N2CCN(C)CC2)cn1`: the GI50 was inactive: 15 µM.

With `C[C@H]1C(=O)O[C@@H]2CCN3CC=C(COC(=O)[C@](C)(O)[C@@]1(C)O)[C@H]23`, the GI50 was inactive: > 100 µM.

As to `O=C(O)C(CSC(c1ccccc1)(c1ccccc1)c1ccccc1)/N=C/c1cccs1` (stereo not given), the GI50 was inactive: 1.7 µM.

In the case of `O=C(c1ccco1)N(C(=O)N1CCC(c2ccccc2)CC1)c1ccccc1`, the GI50 was inactive: > 100 µM.

For the compound `CC(Oc1ccc(Cl)cc1Cl)C(=O)NN1C(=O)CC(=O)NC1=S` (stereo not given), the GI50 is inactive: > 100 µM.

As to `COC1CCC2C(=O)CCCC2O1` (stereo not given), the GI50 was inactive: > 100 µM.

Consider `NCCCCNCCCNC(=O)c1csc(-c2nc(CCN)sc2Cl)n1`, for which the GI50 was inactive: > 100 µM.

Regarding `O=[N+]([O-])c1cc2c(cc1/C=N/n1c(CO)nc3ccccc31)OCO2`, the GI50 is inactive: > 100 µM.

As for `C/C(=C1/N=C(c2ccccc2)OC1=O)c1cccs1`, the GI50 is inactive: > 100 µM.

`CNC1=C(C)C(=O)C2=C(C1=O)C(COC(N)=O)C1(OC)C3NC3CN21` (stereo not given): the GI50 was active: 0.337 µM.

The values are drawn from ChEMBL document CHEMBL1201862, “PubChem BioAssay data set” (2004).
